Experimental data from PubChem BioAssay (NCI).
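96-well plates; 48 h exposure; 5 concentrations. Endpoints by linear interpolation between flanking doses. Not reached: highest tested concentration assigned. GI50: concentration for 50% inhibition of growth. TGI: concentration producing complete growth inhibition.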

Test system: NCI-H322M lung
Assay: NCI-60 cell line screen, 48 h

Structure (SMILES) | TGI [µM] | GI50 [µM]
CN(C)CCNC(=O)c1cccc2nc3c(nc12)-c1ccccc1C3=O | 41 | –
Cc1cc(Cc2cc(C)cc(C(C)(C)C)c2O)c(O)c(C(C)(C)C)c1 | 21.9 | 9.57
O=C(CCCCCCCCC(=O)N1C(=O)CC(=O)N(c2cccc(Cl)c2)C1=S)N1C(=O)CC(=O)N(c2cccc(Cl)c2)C1=S | 82.6 | –
Cc1cc(NS(=O)(=O)c2ccc(NC(=O)c3cccc4c(Nc5ccc(S(=O)(=O)N=C(N)N)cc5)c5ccccc5nc34)cc2)no1 | > 100 | –
C=CC(=O)N[C@H]1CCOC[C@H]1Nc1ncc2cc(-c3c(Cl)c(OC)cc(OC)c3Cl)ccc2n1 | > 100 | 31.1
COc1ccc(/C=C\c2cc(OC)c(OC)c(OC)c2)cc1OC(=O)CCC(=O)O | > 100 | –
Cc1ccc(SC2=CC(=O)c3nc4ccccc4c4ccnc2c34)cc1 | > 100 | > 74.9
CC(=O)O/N=C1/C(c2c(O)[nH]c3cc(Br)ccc23)=Nc2ccccc21 | 3.05 | 1.39
NCCNc1cccc2ccccc12 | > 100 | –
O=C(NC1CCN(Cc2ccccc2)CC1)c1cc2nc(-c3ccc(Cl)s3)cc(C(F)(F)F)n2n1 | > 100 | > 100
O=C(CCl)N1c2ccccc2Sc2ccc3ccccc3c21 | 3.36 | 1.79
Cc1[nH]c2ccccc2c1C=Nc1ccc(N=Cc2c(C)[nH]c3ccccc23)cc1 | > 100 | –
COc1cccc(/C=N/[N-]C(N)=O)c1[O-].[Ni+2].[OH3+].c1cnc2c(c1)ccc1cccnc12 | > 100 | –
CC(=O)OC1CC2(O)C3CCC4CC(O)CCC4(C)C3CCC2(C)C1C1=CC(=O)OC1 (configuration not stated) | 0.692 | –
O=c1cc(-c2ccccc2)[nH]n1-c1nc2ccccc2[nH]1 | > 100 | 8.02
Fc1ccc(C2SCc3nc4ccccc4n32)cc1 (configuration not stated) | > 100 | –
C=C1C(=O)O[C@H]2[C@H]1CC/C(COC(=O)CSCC(=O)OC/C1=C/CC[C@@]3(C)O[C@H]3[C@H]3OC(=O)C(=C)[C@@H]3CC1)=C\CC[C@@]1(C)O[C@@H]21 | 22.6 | 10.7
COC(=O)n1c(=O)n(-c2ccccc2)c(=O)n1C(=O)OC | > 100 | –
CN(C)CCSC(=Nc1ccccc1)N1CCCCC1 | 66.3 | –
CO[C@@H]1/C=C(C)/C=C/[C@@H](C)/C=C(\C)C(=O)OC(/C(C)=C/C=C(\C)CNC(=O)[C@H](CO)NC=O)[C@@H](C)/C=C/C=C/[C@H](OC)CC/C=C(C)/C=C/C1 (some centres not stated) | 0.21 | < 0.005
CN1CC(C(=O)C2C(=O)c3ccccc3C2=O)C(=O)C(=O)C(C(=O)C2C(=O)c3ccccc3C2=O)C1 (configuration not stated) | > 100 | –
CC(=O)OC1(C)C(=O)OC1(C)C(C)=O (configuration not stated) | > 100 | –
C=CCC1(O)c2cccc(NCCO)c2C(=O)c2c(NCCO)cccc21 | > 100 | > 100

Structure (SMILES) | TGI [µM] | GI50 [µM]
O=C1c2c(nc3ccccc3c2-c2ccccc2)CN1Nc1ccccn1 | > 100 | –
CNC(=O)c1cc(NC(=O)N(CCC#N)CCN(C(=O)N[C@@H](Cc2ccccc2)C(=O)N[C@@H](CC(C)C)C(=O)NC)c2ccccc2)ccc1OC | > 100 | –
C=C1C(=O)OCC2C(C(=O)O)=CC3C(C)C(C)=CC123 (configuration not stated) | 39 | –
O=c1c(C=Nc2ccc([N+](=O)[O-])cc2)c(O)n(-c2ccccc2)c(=O)n1-c1ccccc1 | > 100 | –
O=C(N/N=C/c1ccccc1O)C(=O)Nc1ccc(F)cc1 | 55.9 | 2.25
Fc1ccc(N=NN2CCCC2)cc1 | > 100 | –
CC(=O)O[C@H]1CCC(C)=CCC[C@@]2(C)C(CC[C@@H]2[C@@H](C)/C=C/C(C)C)c2ccc(cc2C(=O)O)C1 (some centres not stated) | 17.6 | –
CC(C)(C)C1(COC(=O)c2ccc(N)cc2)COC1 | > 100 | –
COc1ccc(Cl)cc1NC(=O)C(Br)C(Br)C(=O)O (configuration not stated) | > 59.2 | 11.6
CC(C)(C)C(=O)ON1N=NC2C3CC(OCc4ccccc4)(OCc4ccccc4)C(O3)C21 (configuration not stated) | > 100 | –
O=C1Cc2c([nH]c3ccc(Br)cc23)-c2ccccc2N1 | > 100 | –
C/C(=N\NC(N)=S)C(CN(CC(C)C)CC(C)C)C(=O)Nc1ccc(C)cc1C (configuration not stated) | > 100 | –
C1OC1CO[C@@H]1CO[C@H]2[C@@H]1OC[C@H]2OCC1CO1 (some centres not stated) | > 100 | –
COc1cccc(N(CN2CC=CC2=O)C(C)=O)c1 | > 100 | –
Cc1c(C)[n+](=O)c(C)c(C)n1[O-] | > 100 | > 100
COc1ccccc1C#Cc1ccccc1C#CCCCCCC#Cc1ccccc1C#Cc1ccccc1OC | > 100 | 86.7
CC(C)NC(=O)OCc1c(COC(=O)NC(C)C)c(-c2ccc(Cl)cc2)n2c1CCC2 | 22.1 | 3.91
CSc1ccc2c3c(n(C[C@H](O)CO)c(=O)c2c1)-c1ccccc1C3=O | > 100 | 5.11
O=C1C(=O)N(c2ccc(Cl)cc2Cl)C(=O)C(=O)C1c1nc2ccccc2o1 | > 100 | –
c1ccc2c(c1)CCc1cc3cc4c(nc3nc1-2)-c1ccccc1CC4 | > 100 | –
COC(=O)/C=C(/C(=O)OC)c1c(C)c(C)c2c(C)cc(C)cc(C)c1-2 | > 100 | –
O=C(Nc1ccc(Cl)cc1)c1cc(-c2ccc(Cl)cc2)c2sc(=O)[nH]c2n1 | 9.72 | 2.81
